Experiments:
[1] = system: FD436; assay: MIC determination of nalidixic acid and rifampicin (broth dilution, Bioscreen turbidity); details: FD436, 37° C.
Experimental: (§1) MIC was defined as the lowest concentration of antimicrobial agents which inhibits visible bacterial growth, and MBC is the lowest concentration of the agents which kills a defined proportion (usually 99.9%) of the bacterial population after incubation for a set time (Collins et al., Microbiological Methods pp 86, 114-115, 178-205, Butterworth-Heineman, Oxford, England, 1995). The broth dilution method was used for determining MIC. The method for determining MBC was an extension of the broth dilution method.
(§2) Two percent (w/v) nalidixic acid solution, or 1% (w/v) rifampicin solution, was added to TSB to make 2 ml of TSB media containing graded concentrations of nalidixic acid or rifampicin (0.04, 0.02, 0.01, 0.005, 0.0025, 0.00125, 0.000625 and 0.0003125% (w/v)). TSB media containing no antimicrobials were also prepared as controls. TSB medium was used instead of the conventionally recommended media for MIC and MBC determinations as metabolic-drift mutants may be more fastidious than their parent strains and thus may require highly nutritious media, such as TSB.
(§3) Turbidity (OD420-580) measured by Bioscreen and visual observation after 24 h incubation at 37° C. were the criteria used for assessing the growth of bacteria. FD436 was mixed with the above TSB media containing the graded concentrations of antimicrobials to make approximately 10^6 cfu/ml bacterial suspensions (the actual concentration was 9.6×10^5 cfu/ml). Inoculated and uninoculated TSB containing no antimicrobials were included as positive and negative controls, respectively. […] In addition, the remainder of the medium was incubated aerobically at 37° C. for 24 h for visual observation of turbidity. The MICs of the antimicrobials were determined based on the definition described previously. For determining the MBC, each medium containing antimicrobial concentrations above the MIC was diluted with TSB to the MIC, and 1 ml of each was pipetted directly onto an SBA plate and distributed with a sterile glass spreader. […] Colonies growing on the SBA were identified using the Salmonella identification procedure. The MBC of each antimicrobial was determined based on the definition described previously.

[2] = system: FD436; assay: MBC determination of nalidixic acid and rifampicin (growth on SBA plates)
Experimental: as §1, §2, §3

[3] = 0.0003125% (w/v) antimicrobial in TSB
[4] = 0.000625% (w/v) antimicrobial in TSB
[5] = 0.00125% (w/v) antimicrobial in TSB
[6] = 0.005% (w/v) antimicrobial in TSB
[7] = 0.01% (w/v) antimicrobial in TSB
[8] = 0.02% (w/v) antimicrobial in TSB
[9] = 0.04% (w/v) antimicrobial in TSB
[10] = TSB originally 0.0003125% (w/v) antimicrobial
[11] = TSB originally 0.000625% (w/v) antimicrobial
[12] = TSB originally 0.00125% (w/v) antimicrobial
[13] = TSB originally 0.005% (w/v) antimicrobial
[14] = TSB originally 0.01% (w/v) antimicrobial
[15] = TSB originally 0.02% (w/v) antimicrobial
[16] = TSB originally 0.04% (w/v) antimicrobial

Structure (SMILES) | Turbidity of TSB media after 24-hour incubation measured using Bioscreen [1, 3] | Turbidity of TSB media after 24-hour incubation measured using Bioscreen [1, 4] | Turbidity of TSB media after 24-hour incubation measured using Bioscreen [1, 5] | Turbidity of TSB media after 24-hour incubation measured using Bioscreen [1, 6] | Turbidity of TSB media after 24-hour incubation measured using Bioscreen [1, 7] | Turbidity of TSB media after 24-hour incubation measured using Bioscreen [1, 8] | Turbidity of TSB media after 24-hour incubation measured using Bioscreen [1, 9] | Growth of Salmonella on SBA plates after 48-hour incubation (colonies) [2, 10] | Growth of Salmonella on SBA plates after 48-hour incubation (colonies) [2, 11] | Growth of Salmonella on SBA plates after 48-hour incubation (colonies) [2, 12] | Growth of Salmonella on SBA plates after 48-hour incubation (colonies) [2, 13] | Growth of Salmonella on SBA plates after 48-hour incubation (colonies) [2, 14] | Growth of Salmonella on SBA plates after 48-hour incubation (colonies) [2, 15] | Growth of Salmonella on SBA plates after 48-hour incubation (colonies) [2, 16] | Turbidity of TSB media after 24-hour incubation measured using Bioscreen ([1]; 0.0025% (w/v) antimicrobial in TSB) | Growth of Salmonella on SBA plates after 48-hour incubation (colonies) ([2]; TSB originally 0.0025% (w/v) antimicrobial)
CCn1cc(C(=O)O)c(=O)c2ccc(C)nc21 [Nalidixic acid] | + | + | − | − | − | − | − | P.G (P.G = profuse growth (greater than 1.0 × 10^3 colonies)) | P.G (P.G = profuse growth (greater than 1.0 × 10^3 colonies)) | N.G | N.G | N.G | 8 | 1 |  | 
CO[C@H]1/C=C/O[C@@]2(C)Oc3c(C)c(O)c4c(O)c(c(/C=N/N5CCN(C)CC5)c(O)c4c3C2=O)NC(=O)/C(C)=C\C=C\[C@H](C)[C@H](O)[C@@H](C)[C@@H](O)[C@@H](C)[C@H](OC(C)=O)[C@@H]1C [Rifampicin] | + | + | + | − | − | − | − | P.G (P.G = profuse growth (greater than 1.0 × 10^3 colonies)) | P.G (P.G = profuse growth (greater than 1.0 × 10^3 colonies)) | P.G (P.G = profuse growth (greater than 1.0 × 10^3 colonies)) | 5 | 1 | 1 | N.G | − | 6
